# Experimental data taken from the supplement of paper PMC8728848.
# This is one part of the list.
# B1: EEA (Euonymus europaeus) (protein)
# chain: MASTIIATGPTYRVYCRAAPNYNMIVGKGVAFLAPIDETNELQYWYKDDTYSYIKDEAGLPAFSLVNKATGLTLKHSNHHPVPVKLVTYNPNVVDESVLWSQADDRGDGYSAIRSLTNPASHLEAAPLNDWSYNGAIIMGGVWIDAYNQQWKIEPHTG
# Key:
# Test in all cases: glycan array binding signal (z-score within array); higher = stronger binding
# Conditions in all cases: glycan notation: IUPAC condensed, linker removed
# [1] = target: Neu5Ac(a2-3)Gal(b1-4)[Fuc(a1-3)]GlcNAc(b1-3)Gal
# Outline: (§1)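 From the Consortium for Functional Glycomics database, 3228 arrays were curated, keeping only those whose protein sequence was available. Binding is given as a within-array Z-score averaged across arrays sharing a protein sequence and across linkers. Negative Z-scores can be read as non-binding.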
# [2] = target: Neu5Ac(a2-3)Gal(b1-4)[Fuc(a1-3)]GlcNAc(b1-3)Gal(b1-4)GlcNAc
# Outline: as §1
# [3] = target: Neu5Ac(a2-3)Gal(b1-4)[Fuc(a1-3)]GlcNAc(b1-3)Gal(b1-4)[Fuc(a1-3)]GlcNAc(b1-3)Gal(b1-4)[Fuc(a1-3)]GlcNAc
# Outline: as §1
# [4] = target: Neu5Ac(a2-3)Gal(b1-4)[Fuc(a1-3)]GlcNAc(b1-3)GalNAc
# Outline: as §1
# [5] = target: Neu5Ac(a2-3)Gal(b1-4)[Fuc(a1-3)]GlcNAc(b1-6)[Gal(b1-3)]GalNAc
# Outline: as §1
# [6] = target: Neu5Ac(a2-3)Gal(b1-4)[Fuc(a1-3)]GlcNAc(b1-6)[Neu5Ac(a2-3)Gal(b1-3)]GalNAc
# Outline: as §1
# [7] = target: Neu5Ac(a2-3)Gal(b1-4)[Fuc(a1-3)]GlcNAc6S
# Outline: as §1
# [8] = target: Neu5Ac(a2-3)Gal6S(b1-4)GlcNAc
# Outline: as §1
# [9] = target: Neu5Ac(a2-3)Gal6S(b1-4)[Fuc(a1-3)]GlcNAc
# Outline: as §1
# Neu5Ac(a2-3)GalNAc = target: Neu5Ac(a2-3)GalNAc
# Outline: as §1
# [10] = target: Neu5Ac(a2-3)GalNAc(b1-4)GlcNAc
# Outline: as §1
# [11] = target: Neu5Ac(a2-3)[GalNAc(b1-4)]Gal(b1-4)Glc
# Outline: as §1
# [12] = target: Neu5Ac(a2-3)[GalNAc(b1-4)]Gal(b1-4)GlcNAc
# Outline: as §1
# [13] = target: Neu5Ac(a2-3)[GalNAc(b1-4)]Gal(b1-4)GlcNAc(b1-3)GalNAc
# Outline: as §1
# [14] = target: Neu5Ac(a2-3)[Neu5Ac(a2-6)]GalNAc
# Outline: as §1
# Neu5Ac(a2-6)Gal = target: Neu5Ac(a2-6)Gal
# Outline: as §1
# [15] = target: Neu5Ac(a2-6)Gal(b1-3)GlcNAc(b1-3)[Gal(b1-4)GlcNAc(b1-6)]Gal(b1-4)Glc
# Outline: as §1
# Neu5Ac(a2-6)Gal(b1-4)Glc = target: Neu5Ac(a2-6)Gal(b1-4)Glc
# Outline: as §1
# [16] = target: Neu5Ac(a2-6)Gal(b1-4)GlcNAc
# Outline: as §1
# [17] = target: Neu5Ac(a2-6)Gal(b1-4)GlcNAc(b1-2)Man
# Outline: as §1
# [18] = target: Neu5Ac(a2-6)Gal(b1-4)GlcNAc(b1-2)Man(a1-3)Man(b1-4)GlcNAc(b1-4)GlcNAc
# Outline: as §1
# [19] = target: Neu5Ac(a2-6)Gal(b1-4)GlcNAc(b1-2)Man(a1-3)[Gal(b1-4)GlcNAc(b1-2)Man(a1-6)]Man(b1-4)GlcNAc(b1-4)GlcNAc
# Outline: as §1
# [20] = target: Neu5Ac(a2-6)Gal(b1-4)GlcNAc(b1-2)Man(a1-3)[GlcNAc(b1-2)Man(a1-6)]Man(b1-4)GlcNAc(b1-4)GlcNAc
# Outline: as §1
# [21] = target: Neu5Ac(a2-6)Gal(b1-4)GlcNAc(b1-2)Man(a1-3)[GlcNAc(b1-2)Man(b1-4)GlcNAc(b1-2)Man(a1-6)]Man(b1-4)GlcNAc(b1-4)GlcNAc
# Outline: as §1
# [22] = target: Neu5Ac(a2-6)Gal(b1-4)GlcNAc(b1-2)Man(a1-3)[GlcNAc(b1-4)][Neu5Ac(a2-6)Gal(b1-4)GlcNAc(b1-2)Man(a1-6)]Man(b1-4)GlcNAc(b1-4)GlcNAc
# Outline: as §1
# [23] = target: Neu5Ac(a2-6)Gal(b1-4)GlcNAc(b1-2)Man(a1-3)[Man(a1-6)]Man(b1-4)GlcNAc(b1-4)GlcNAc
# Outline: as §1
# [24] = target: Neu5Ac(a2-6)Gal(b1-4)GlcNAc(b1-2)Man(a1-3)[Neu5Ac(a2-3)Gal(b1-4)GlcNAc(b1-2)Man(a1-6)]Man(b1-4)GlcNAc(b1-4)GlcNAc
# Outline: as §1
# [25] = target: Neu5Ac(a2-6)Gal(b1-4)GlcNAc(b1-2)Man(a1-3)[Neu5Ac(a2-6)Gal(b1-4)GlcNAc(b1-2)Man(a1-6)]Man(b1-4)GlcNAc(b1-4)GlcNAc
# Outline: as §1
# [26] = target: Neu5Ac(a2-6)Gal(b1-4)GlcNAc(b1-2)Man(a1-3)[Neu5Ac(a2-6)Gal(b1-4)GlcNAc(b1-2)Man(a1-6)]Man(b1-4)GlcNAc(b1-4)[Fuc(a1-6)]GlcNAc
# Outline: as §1
# [27] = target: Neu5Ac(a2-6)Gal(b1-4)GlcNAc(b1-2)Man(a1-6)Man(b1-4)GlcNAc(b1-4)GlcNAc
# Outline: as §1
# [28] = target: Neu5Ac(a2-6)Gal(b1-4)GlcNAc(b1-2)Man(a1-6)[Gal(b1-4)GlcNAc(b1-2)Man(a1-3)]Man(b1-4)GlcNAc(b1-4)GlcNAc
# Outline: as §1
# [29] = target: Neu5Ac(a2-6)Gal(b1-4)GlcNAc(b1-2)Man(a1-6)[GlcNAc(b1-2)Man(a1-3)]Man(b1-4)GlcNAc(b1-4)GlcNAc
# Outline: as §1
# [30] = target: Neu5Ac(a2-6)Gal(b1-4)GlcNAc(b1-2)Man(a1-6)[Man(a1-3)]Man(b1-4)GlcNAc(b1-4)GlcNAc
# Outline: as §1
# [31] = target: Neu5Ac(a2-6)Gal(b1-4)GlcNAc(b1-2)[Neu5Ac(a2-6)Gal(b1-4)GlcNAc(b1-4)]Man(a1-3)[GlcNAc(b1-4)][Neu5Ac(a2-6)Gal(b1-4)GlcNAc(b1-2)[Neu5Ac(a2-6)Gal(b1-4)GlcNAc(b1-6)]Man(a1-6)]Man(b1-4)GlcNAc(b1-4)GlcNAc
# Outline: as §1
# [32] = target: Neu5Ac(a2-6)Gal(b1-4)GlcNAc(b1-2)[Neu5Ac(a2-6)Gal(b1-4)GlcNAc(b1-4)]Man(a1-3)[GlcNAc(b1-4)][Neu5Ac(a2-6)Gal(b1-4)GlcNAc(b1-4)Man(a1-6)]Man(b1-4)GlcNAc(b1-4)GlcNAc
# Outline: as §1
# [33] = target: Neu5Ac(a2-6)Gal(b1-4)GlcNAc(b1-2)[Neu5Ac(a2-6)Gal(b1-4)GlcNAc(b1-6)]Man(a1-6)[Neu5Ac(a2-6)Gal(b1-4)GlcNAc(b1-2)Man(a1-3)][GlcNAc(b1-4)]Man(b1-4)GlcNAc(b1-4)GlcNAc
# Outline: as §1
# [34] = target: Neu5Ac(a2-6)Gal(b1-4)GlcNAc(b1-3)Gal(b1-3)GlcNAc
# Outline: as §1
# [35] = target: Neu5Ac(a2-6)Gal(b1-4)GlcNAc(b1-3)Gal(b1-4)GlcNAc
# Outline: as §1
# [36] = target: Neu5Ac(a2-6)Gal(b1-4)GlcNAc(b1-3)Gal(b1-4)GlcNAc(b1-2)Man(a1-3)[Neu5Ac(a2-6)Gal(b1-4)GlcNAc(b1-3)Gal(b1-4)GlcNAc(b1-2)Man(a1-6)]GalNAc
# Outline: as §1
# [37] = target: Neu5Ac(a2-6)Gal(b1-4)GlcNAc(b1-3)Gal(b1-4)GlcNAc(b1-3)Gal(b1-4)GlcNAc
# Outline: as §1
# [38] = target: Neu5Ac(a2-6)Gal(b1-4)GlcNAc(b1-3)Gal(b1-4)GlcNAc(b1-3)Gal(b1-4)GlcNAc(b1-2)Man(a1-3)[Neu5Ac(a2-6)Gal(b1-4)GlcNAc(b1-3)Gal(b1-4)GlcNAc(b1-3)Gal(b1-4)GlcNAc(b1-2)Man(a1-6)]GalNAc
# Outline: as §1
# [39] = target: Neu5Ac(a2-6)Gal(b1-4)GlcNAc(b1-3)Gal(b1-4)GlcNAc(b1-3)GalNAc
# Outline: as §1
# [40] = target: Neu5Ac(a2-6)Gal(b1-4)GlcNAc(b1-3)Gal(b1-4)GlcNAc(b1-3)[Neu5Ac(a2-6)Gal(b1-4)GlcNAc(b1-3)Gal(b1-4)GlcNAc(b1-6)]GalNAc
# Outline: as §1
# [41] = target: Neu5Ac(a2-6)Gal(b1-4)GlcNAc(b1-3)Gal(b1-4)GlcNAc(b1-6)[Gal(b1-3)]GalNAc
# Outline: as §1
# [42] = target: Neu5Ac(a2-6)Gal(b1-4)GlcNAc(b1-3)Gal(b1-4)[Fuc(a1-3)]GlcNAc(b1-3)Gal(b1-4)[Fuc(a1-3)]GlcNAc
# Outline: as §1
binder,measurement,setting,value
B1,glycan array binding signal (z-score),[1],-0.126
same,glycan array binding signal (z-score),[2],-0.172
same,glycan array binding signal (z-score),[3],-0.207
same,glycan array binding signal (z-score),[4],-0.117
same,glycan array binding signal (z-score),[5],-0.043
same,glycan array binding signal (z-score),[6],-0.15
same,glycan array binding signal (z-score),[7],-0.196
same,glycan array binding signal (z-score),[8],-0.212
same,glycan array binding signal (z-score),[9],-0.226
same,glycan array binding signal (z-score),Neu5Ac(a2-3)GalNAc,-0.268
same,glycan array binding signal (z-score),[10],-0.262
same,glycan array binding signal (z-score),[11],-0.207
same,glycan array binding signal (z-score),[12],-0.212
same,glycan array binding signal (z-score),[13],0.46
same,glycan array binding signal (z-score),[14],-0.34
same,glycan array binding signal (z-score),Neu5Ac(a2-6)Gal,-0.205
same,glycan array binding signal (z-score),[15],-0.232
same,glycan array binding signal (z-score),Neu5Ac(a2-6)Gal(b1-4)Glc,-0.176
same,glycan array binding signal (z-score),[16],-0.16
same,glycan array binding signal (z-score),[17],-0.13
same,glycan array binding signal (z-score),[18],-0.169
same,glycan array binding signal (z-score),[19],-0.163
same,glycan array binding signal (z-score),[20],-0.226
same,glycan array binding signal (z-score),[21],-0.242
same,glycan array binding signal (z-score),[22],-0.2
same,glycan array binding signal (z-score),[23],-0.235
same,glycan array binding signal (z-score),[24],-0.105
same,glycan array binding signal (z-score),[25],-0.208
same,glycan array binding signal (z-score),[26],-0.102
same,glycan array binding signal (z-score),[27],-0.263
same,glycan array binding signal (z-score),[28],-0.233
same,glycan array binding signal (z-score),[29],-0.206
same,glycan array binding signal (z-score),[30],-0.228
same,glycan array binding signal (z-score),[31],-0.222
same,glycan array binding signal (z-score),[32],-0.246
same,glycan array binding signal (z-score),[33],-0.179
same,glycan array binding signal (z-score),[34],-0.261
same,glycan array binding signal (z-score),[35],-0.212
same,glycan array binding signal (z-score),[36],-0.005
same,glycan array binding signal (z-score),[37],-0.223
same,glycan array binding signal (z-score),[38],0.479
same,glycan array binding signal (z-score),[39],-0.215
same,glycan array binding signal (z-score),[40],0.574
same,glycan array binding signal (z-score),[41],0.132
same,glycan array binding signal (z-score),[42],-0.235
